42 molecules from article PMC4336329 (PLoS ONE, 2015) can be followed below.

Each structure is given as a SMILES string. About 14,000 (4.5%) of roughly 310,000 compounds showed an effect of 50% or more. The effect is printed as a negative number. This is one part of the list.
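Further: peak tail current of the secondary pulse compared with the same well before compound.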

human ether-à-go-go-related gene (hERG) potassium channel, sequence (Q12809 whole entry, looked up): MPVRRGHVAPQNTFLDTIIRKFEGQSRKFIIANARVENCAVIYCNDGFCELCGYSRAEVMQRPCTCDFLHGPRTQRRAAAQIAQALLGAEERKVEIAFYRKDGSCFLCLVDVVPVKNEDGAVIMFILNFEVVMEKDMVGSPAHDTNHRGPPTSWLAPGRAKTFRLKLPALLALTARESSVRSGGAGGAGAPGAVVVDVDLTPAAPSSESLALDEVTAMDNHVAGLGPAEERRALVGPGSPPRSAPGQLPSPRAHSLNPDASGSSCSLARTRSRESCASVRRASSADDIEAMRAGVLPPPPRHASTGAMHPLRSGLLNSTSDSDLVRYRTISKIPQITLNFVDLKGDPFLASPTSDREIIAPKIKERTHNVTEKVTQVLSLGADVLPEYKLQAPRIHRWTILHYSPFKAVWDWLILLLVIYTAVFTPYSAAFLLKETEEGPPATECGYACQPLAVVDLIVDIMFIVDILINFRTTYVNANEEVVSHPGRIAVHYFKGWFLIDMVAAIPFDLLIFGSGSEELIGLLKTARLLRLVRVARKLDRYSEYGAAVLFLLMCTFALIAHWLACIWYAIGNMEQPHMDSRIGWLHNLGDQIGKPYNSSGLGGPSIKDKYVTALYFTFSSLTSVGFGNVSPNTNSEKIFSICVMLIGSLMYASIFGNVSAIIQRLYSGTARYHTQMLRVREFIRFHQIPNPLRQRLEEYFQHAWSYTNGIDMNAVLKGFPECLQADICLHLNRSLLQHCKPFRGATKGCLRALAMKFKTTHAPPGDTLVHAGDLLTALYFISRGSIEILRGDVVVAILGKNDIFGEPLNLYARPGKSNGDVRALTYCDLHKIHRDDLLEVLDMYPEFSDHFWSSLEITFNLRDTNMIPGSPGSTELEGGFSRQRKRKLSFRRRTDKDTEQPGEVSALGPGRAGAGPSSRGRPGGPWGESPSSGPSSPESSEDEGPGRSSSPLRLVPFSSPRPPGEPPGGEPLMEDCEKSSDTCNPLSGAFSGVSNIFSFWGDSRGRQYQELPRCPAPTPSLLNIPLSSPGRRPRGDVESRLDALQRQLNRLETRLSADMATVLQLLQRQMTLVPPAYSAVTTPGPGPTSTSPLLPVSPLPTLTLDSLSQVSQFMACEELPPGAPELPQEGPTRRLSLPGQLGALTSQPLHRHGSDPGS

This assay addresses human ether-à-go-go-related gene (hERG) potassium channel (human, UniProt Q12809). As to the kind of experiment: primary screen, population patch clamp on CHO cells stably expressing hERG.
Regarding `CNC(=O)COc1coc(CN2CCN(c3ccccc3F)CC2)cc1=O`, the “hERG current change (%, negative = inhibition) at 10uM” value is listed as 3.7%.
With `CCCc1ccc2oc(C(=O)N3CCC(COC)C3)c(C)c2c1` (stereo not drawn), the “hERG current change (%, negative = inhibition) at 10uM” value is recorded as -38.4%.
Take `CC1CC(C)(C)NC(=S)N1CCC(=O)N1CCN(c2ccccc2)CC1` (stereo not drawn): the “hERG current change (%, negative = inhibition) at 10uM” value worked out at 0.18%.
As for `COc1ccc(NC(=O)CS(=O)(=O)Cc2ccccc2)c([N+](=O)[O-])c1`, the “hERG current change (%, negative = inhibition) at 10uM” value is given as -14.8%.
On to `O=C(Nc1cccc(NC(=O)c2cncc(Br)c2)c1)c1cncc(Br)c1`, for which the “hERG current change (%, negative = inhibition) at 10uM” value stood at 8.56%.
Consider `COc1ccccc1-n1c(CNC(=O)c2ccc(S(=O)(=O)N3CCCCC3)cc2)n[nH]c1=S`, for which the “hERG current change (%, negative = inhibition) at 10uM” value was 20.2%.
Take `CN1CCN(CC(=O)NN2CC(=O)N(c3ccc(F)cc3)CC2=O)CC1`: the “hERG current change (%, negative = inhibition) at 10uM” value worked out at 4.34%.
As to `O=[N+]([O-])c1ccccc1S(=O)(=O)Nc1ccc(-c2ccc(N3CCCC3)nn2)cc1`, the “hERG current change (%, negative = inhibition) at 10uM” value is -13.5%.
Regarding `CCOC(=O)c1c(-c2ccc(Cl)cc2)c(C#N)c(=O)n(N)c1N`, the “hERG current change (%, negative = inhibition) at 10uM” value turned out to be 7.15%.
As for `COc1ccc(C2CC(c3ccccc3)=NN2S(=O)(=O)c2ccccc2)cc1` (stereo not drawn), the “hERG current change (%, negative = inhibition) at 10uM” value worked out at 14.8%.
In the case of `C/C(N)=C(/C#N)C(=O)CSc1nnc(C)n1-c1ccccc1`, the “hERG current change (%, negative = inhibition) at 10uM” value was 39.9%.
Consider `COc1ccc2cc(C3(C)NC(=O)N(CC(=O)NCC(F)(F)F)C3=O)ccc2c1` (stereo not drawn), for which the “hERG current change (%, negative = inhibition) at 10uM” value was found to be 6.12%.
As to `COc1ccc(NS(=O)(=O)c2ccc(-c3ccccn3)s2)cc1`, the “hERG current change (%, negative = inhibition) at 10uM” value is -4.6%.
On to `Cc1ccc(CSc2nnc(Cn3c(=O)sc4ccccc43)n2C)cc1`, for which the “hERG current change (%, negative = inhibition) at 10uM” value is given as -8.26%.
Consider `Cc1[nH]c(C)c(S(=O)(=O)N2CCC(C)CC2)c1C(=O)N1CCCC1`, for which the “hERG current change (%, negative = inhibition) at 10uM” value is given as -11%.
`Cn1c(CC(=O)NCCO)c(Sc2ccccc2)c2ccccc21`: the “hERG current change (%, negative = inhibition) at 10uM” value is on record as -25.4%.
On to `C/C=C/C(=O)OCC(=O)Nc1cc(-c2cc(C)c(C)cc2C)nn1-c1ccccc1`, for which the “hERG current change (%, negative = inhibition) at 10uM” value worked out at 2.24%.
`CC1CC(C)CN(S(=O)(=O)N2CCCC(C(=O)NC3CCCCC3C)C2)C1` (stereo not drawn): the “hERG current change (%, negative = inhibition) at 10uM” value came out at 12.7%.
For `Cc1cccc(NC(=S)NCCc2ccc(F)cc2)c1C`, the “hERG current change (%, negative = inhibition) at 10uM” value came out at 14.5%.
Next, `O=C(CCc1ccccc1)Nc1ccc(Cl)cn1`: -13.7%; `COc1ccc(N/C=C/C(=O)c2ccc3c(c2)OCO3)cc1OC`: -9.42%; `CCOC(=O)CSc1nnc(CSc2nc3sc4c(c3c(=O)[nH]2)CCC4)n1C`: -2.93%.
Consider `Cc1nnc(-c2ccc(Oc3ccc(C)c(C)c3)c([N+](=O)[O-])c2)o1`, for which the “hERG current change (%, negative = inhibition) at 10uM” value is on record as -14.7%.
Turning to `CCn1cc(C(=O)NCCc2ccccc2)c(=O)c2cc(S(=O)(=O)N3CCCC3)ccc21`, the “hERG current change (%, negative = inhibition) at 10uM” value is 1.7%.
Next, `COc1cc(-c2noc(CCCC(=O)Nc3ccc(C(N)=O)cc3)n2)cc(OC)c1OC`: 15.6%; `Cc1nn(-c2ccccc2)c(C)c1C(=O)OCC(=O)Nc1ccc2c(c1)OCO2`: -26.5%; `O=C(CCNS(=O)(=O)c1ccc(OC(F)(F)F)cc1)NCCc1c[nH]c2ccccc12`: 9.12%.
Next, `O=C(CCc1c[nH]c2ccccc12)Nc1ncccc1O`: 12%; `CC(=O)N(C)c1ccc(N=Nc2c(C)[nH]n(-c3ccccc3)c2=O)cc1`: 8.49%; `CC(=O)Nc1ccc(SC(C)C(=O)NC2CCCC2)cc1` (stereo not drawn): 5.15%.
Under `CCN(CC)S(=O)(=O)c1ccc2oc(SCC(=O)NC3CC3)nc2c1` stands -8.91%.
Regarding `COc1ccc(-c2csc(NC(=O)COC(=O)C3=COCCO3)n2)cc1`, the “hERG current change (%, negative = inhibition) at 10uM” value is 21.4%.
Turning to `Nc1ccc(NC(=S)Nc2ccccc2)cc1`, the “hERG current change (%, negative = inhibition) at 10uM” value worked out at 14.9%.
Under `COc1ccc(Cc2nc(-c3ccc(Br)cc3)no2)cc1` stands -4.05%.
On to `COc1cccc(CNC(=O)CC(NC(=O)c2ccccc2)c2ccccc2)c1` (stereo not drawn), for which the “hERG current change (%, negative = inhibition) at 10uM” value is recorded as -16.6%.
Consider `Cc1nc2ccc(NC(=S)N3CCCC3)cc2nc1C`, for which the “hERG current change (%, negative = inhibition) at 10uM” value came out at 10.4%.
For `CCN(CC)C(C(=O)Nc1ccc2c(c1)OCO2)c1ccccc1` (stereo not drawn), the “hERG current change (%, negative = inhibition) at 10uM” value was -24.3%.
As to `CCOC(=O)c1cccc(NC(=O)Cn2cc3c(n2)CCC(C)C3)c1` (stereo not drawn), the “hERG current change (%, negative = inhibition) at 10uM” value is on record as 10.1%.
Next, `COCCN(Cc1ccccc1)C(=O)c1cc(S(=O)(=O)N2CCCCCC2)ccc1OC`: -18.8%.
Regarding `Cc1nnc(SCC(=O)Nc2ccc(N(C)C)cc2)n(N)c1=O`, the “hERG current change (%, negative = inhibition) at 10uM” value amounted to 25.2%.
As for `CCN(CC)S(=O)(=O)c1ccc(N2CCOCC2)c(NS(=O)(=O)c2cc(C(C)(C)C)ccc2C)c1`, the “hERG current change (%, negative = inhibition) at 10uM” value was determined as 1.08%.
Consider `CCCN(CCC)C(=O)C(CCC(=O)O)NC(=O)c1ccccc1` (stereo not drawn), for which the “hERG current change (%, negative = inhibition) at 10uM” value is -27.2%.
